The subject of assay [1] is HSkMC (human skeletal muscle cells). As to the kind of experiment: cytotoxicity call (relative viability < 0.9). Conditions: 10 µM.
The test system of assay [2] is S. aureus RN4220. As to the kind of experiment: growth inhibition call (relative growth <= 0.2). Conditions: 50 µM.

Structures are written as SMILES. The list shows a part of the results.

29 molecules from the antibiotic and cytotoxicity screens of Wong et al. (2023) can be followed below.

In the case of `O=C(N[C@@H]1CC[C@@H](CCn2cc(C3(O)CCCC3)nn2)O[C@H]1CO)C1CCOCC1`, the cytotoxicity call in assay [1] was “inactive”. In addition, the growth inhibition call in assay [2] is “inactive”.
`C[C@H](CO)N1C[C@H](C)[C@H](CN(C)C(=O)Nc2ccc3c(c2)OCO3)Oc2ccc(NC(=O)CCN3CCOCC3)cc2C1=O`: in assay [1], the cytotoxicity call is “inactive”. The growth inhibition call in assay [2] is “inactive”.
Regarding `C[C@@H]1CN([C@@H](C)CO)C(=O)Cc2cc(NS(=O)(=O)c3ccccc3)ccc2O[C@H]1CN(C)Cc1ccc(-c2ccccc2)cc1`, the cytotoxicity call in assay [1] is “inactive”. The growth inhibition call in assay [2] was “inactive”.
In the case of `O=C(C[C@@H]1C[C@@H]2c3cc(NC(=O)C4CCOCC4)ccc3O[C@@H]2[C@H](CO)O1)NCc1cc(F)ccc1F`, the cytotoxicity call in assay [1] is “inactive”. In addition, the growth inhibition call in assay [2] is “inactive”.
In the case of `COCC(=O)N1C[C@H](C)[C@@H](OC)CN(C)C(=O)c2cc(NC(=O)Nc3ccccc3)ccc2OC[C@@H]1C`, in assay [1], the cytotoxicity call was “inactive”. For the same molecule, the growth inhibition call in assay [2] was “inactive”.
As for `COc1ccc(NC(=O)N(C)C[C@H]2Oc3ccc(NC(=O)CCCCCC(=O)Nc4ccccc4N)cc3C(=O)N([C@@H](C)CO)C[C@H]2C)cc1`, in assay [1], the cytotoxicity call was “inactive”. In addition, in assay [2], the growth inhibition call was “inactive”.
In the case of `C[C@@H]1CCCCO[C@@H](CN(C)S(C)(=O)=O)[C@@H](C)CN([C@H](C)CO)C(=O)c2cc(NS(=O)(=O)c3cccs3)ccc2O1`, in assay [1], the cytotoxicity call is “inactive”. Further, the growth inhibition call in assay [2] was “inactive”.
On to `CC(=O)c1ccc(S(=O)(=O)N2[C@@H]3CC[C@@H](C3)[C@H]2c2nc3cccc(OCc4ccc(F)cc4)c3[nH]2)cc1`, for which, in assay [1], the cytotoxicity call was “inactive”. Also, the growth inhibition call in assay [2] is “inactive”.
Regarding `C[C@H](CO)N1C[C@H](C)[C@H](CN(C)C(=O)Nc2ccc(C(F)(F)F)cc2)Oc2c(NC(=O)Nc3cccc4ccccc34)cccc2C1=O`, the cytotoxicity call in assay [1] is “inactive”. Besides, the growth inhibition call in assay [2] was “inactive”.
For `COc1ccc(NC(=O)Nc2ccc3c(c2)C(=O)N([C@H](C)CO)C[C@H](C)[C@@H](CN(C)S(=O)(=O)c2ccc(OC)cc2)OCCCC[C@@H](C)O3)cc1`, in assay [1], the cytotoxicity call was “inactive”. The growth inhibition call in assay [2] is “inactive”.
On to `C[C@H](CO)N1C[C@H](C)[C@@H](CN(C)C(=O)C2CC2)Oc2ncc(-c3ccc(C(=O)N(C)C)cc3)cc2C1=O`, for which the cytotoxicity call in assay [1] is “inactive”. Also, the growth inhibition call in assay [2] was “inactive”.
As for `Cc1noc(C)c1NC(=O)Nc1ccc2c(c1)C(=O)N([C@@H](C)CO)C[C@@H](C)[C@H](CN(C)C(=O)Nc1ccc(F)cc1)OCCCC[C@H](C)O2`, in assay [1], the cytotoxicity call is “inactive”. Besides, in assay [2], the growth inhibition call was “inactive”.
`C[C@H]1CCCCO[C@@H](CN(C)Cc2ccc(C(F)(F)F)cc2)[C@@H](C)CN([C@@H](C)CO)C(=O)c2cc(NS(=O)(=O)c3ccc(Cl)cc3)ccc2O1`: the cytotoxicity call in assay [1] is “inactive”. Moreover, in assay [2], the growth inhibition call is “inactive”.
For `COc1ccc2cc1/C=C\NC(=O)[C@H](Cc1ccccc1)NC(=O)[C@@H]1[C@H](CCN1C(=O)[C@@H](NC(=O)[C@@H](C)N(C)C)C(C)C)O2`, the cytotoxicity call in assay [1] was “inactive”. In assay [2], the growth inhibition call was “inactive”.
Turning to `COc1ccc(CN(C)C[C@@H]2Oc3ccc(NS(=O)(=O)c4cn(C)cn4)cc3C(=O)N([C@@H](C)CO)C[C@@H]2C)cc1`, the cytotoxicity call in assay [1] was “inactive”. Moreover, the growth inhibition call in assay [2] is “inactive”.
`CC1=C(C)C(=O)C(C(CCCCCC(=O)O)c2ccccc2)=C(C)C1=O` (stereo not drawn): the cytotoxicity call in assay [1] is “inactive”. Also, the growth inhibition call in assay [2] is “inactive”.
For `CN(C)CCOC(=O)COc1ccc(Cl)cc1.Cl`, in assay [1], the cytotoxicity call was “inactive”. Moreover, in assay [2], the growth inhibition call is “inactive”.
As to `C[C@H]1CCCCO[C@@H](CN(C)C(=O)Nc2ccc3c(c2)OCO3)[C@@H](C)CN([C@@H](C)CO)C(=O)c2cc(NC(=O)Nc3ccc(F)cc3)ccc2O1`, the cytotoxicity call in assay [1] is “inactive”. Moreover, in assay [2], the growth inhibition call is “inactive”.
Take `COc1ccc(S(=O)(=O)Nc2ccc3c(c2)CC(=O)N([C@@H](C)CO)C[C@H](C)[C@H](CN(C)C)O3)cc1`: the cytotoxicity call in assay [1] is “inactive”. Besides, in assay [2], the growth inhibition call is “inactive”.
For `C[C@H]1CN([C@@H](C)CO)S(=O)(=O)c2ccc(C#Cc3ccc(F)cc3)cc2O[C@@H]1CN(C)S(=O)(=O)c1ccc(F)cc1`, the cytotoxicity call in assay [1] is “inactive”. For the same molecule, the growth inhibition call in assay [2] is “inactive”.
Consider `C[C@H]1CN([C@@H](C)CO)C(=O)c2cc(NS(=O)(=O)c3ccc(F)cc3)ccc2O[C@@H]1CN(C)CC1CC1`, for which the cytotoxicity call in assay [1] is “inactive”. Moreover, the growth inhibition call in assay [2] was “inactive”.
As for `CN(C)CCC=C1c2ccccc2COc2ccc(CC(=O)O)cc21.Cl`, in assay [1], the cytotoxicity call was “inactive”. Further, the growth inhibition call in assay [2] was “active”.
`COCC#Cc1ccc([C@H]2[C@@H](CO)N3C(=O)CN(C(=O)C4CCOCC4)C[C@@H]23)cc1`: the cytotoxicity call in assay [1] is “inactive”. In assay [2], the growth inhibition call is “inactive”.
On to `Cc1noc(C)c1NC(=O)Nc1ccc2c(c1)CC(=O)N([C@H](C)CO)C[C@@H](C)[C@H](CN(C)Cc1ccc(C(F)(F)F)cc1)O2`, for which the cytotoxicity call in assay [1] was “inactive”. In assay [2], the growth inhibition call is “inactive”.
Regarding `Cc1ccc(S(=O)(=O)Nc2ccc3c(c2)C(=O)N([C@@H](C)CO)C[C@@H](C)[C@H](CN(C)Cc2ccc(Cl)c(Cl)c2)OCCCC[C@@H](C)O3)cc1`, in assay [1], the cytotoxicity call is “inactive”. The growth inhibition call in assay [2] is “inactive”.
Turning to `C=CCC[C@H](Cc1ccc(F)cc1)C(=O)OC[C@H](Cc1c[nH]c2ccccc12)NC(=O)[C@H](CC=C)CC(=O)N[C@@H](CO)Cc1ccccc1`, the cytotoxicity call in assay [1] is “inactive”. Moreover, in assay [2], the growth inhibition call was “inactive”.
`C[C@@H]1CCCCO[C@H](CN(C)C(=O)c2ccccc2)[C@@H](C)CN([C@H](C)CO)C(=O)c2cc(NS(=O)(=O)c3ccc(F)cc3)ccc2O1`: the cytotoxicity call in assay [1] was “inactive”. In assay [2], the growth inhibition call is “inactive”.
With `O=C1CN(N=Cc2ccc(-c3ccc([N+](=O)[O-])cc3)o2)C(=O)[N-]1.[Na+]`, the cytotoxicity call in assay [1] is “inactive”. Also, in assay [2], the growth inhibition call is “inactive”.
As for `Cc1noc(C)c1S(=O)(=O)Nc1ccc2c(c1)CC(=O)N([C@H](C)CO)C[C@@H](C)[C@@H](CN(C)S(=O)(=O)c1cccs1)O2`, the cytotoxicity call in assay [1] was “inactive”. Moreover, the growth inhibition call in assay [2] was “inactive”.
